Experiment in all cases: co-IP; HEK293T co-transfected; lysis in 150 mM NaCl, 50 mM Tris pH 7.5, 1% Triton X-100; immobilised anti-Myc antibody at 4 °C overnight; washed three times with 500 mM lysis buffer; western blot with anti-GFP or anti-Myc
For orientation: In western blotting, separated proteins are transferred to a membrane and probed.

Sequences of proteins named here, by UniProt entry; tags and fusion partners are left off.
UniProt Q6PDM2: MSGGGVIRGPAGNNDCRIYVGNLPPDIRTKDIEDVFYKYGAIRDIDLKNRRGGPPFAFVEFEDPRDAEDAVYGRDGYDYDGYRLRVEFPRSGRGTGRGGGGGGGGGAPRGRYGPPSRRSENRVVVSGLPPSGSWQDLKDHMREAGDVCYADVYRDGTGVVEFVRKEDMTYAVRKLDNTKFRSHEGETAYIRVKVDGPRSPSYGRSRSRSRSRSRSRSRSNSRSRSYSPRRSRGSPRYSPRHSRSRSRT

Experiment [1] deals with T1, Myc-tagged ILDR1 cytoplasmic fragment (mouse) (mouse) (UniProt Q8CBR1).
T1 sequence: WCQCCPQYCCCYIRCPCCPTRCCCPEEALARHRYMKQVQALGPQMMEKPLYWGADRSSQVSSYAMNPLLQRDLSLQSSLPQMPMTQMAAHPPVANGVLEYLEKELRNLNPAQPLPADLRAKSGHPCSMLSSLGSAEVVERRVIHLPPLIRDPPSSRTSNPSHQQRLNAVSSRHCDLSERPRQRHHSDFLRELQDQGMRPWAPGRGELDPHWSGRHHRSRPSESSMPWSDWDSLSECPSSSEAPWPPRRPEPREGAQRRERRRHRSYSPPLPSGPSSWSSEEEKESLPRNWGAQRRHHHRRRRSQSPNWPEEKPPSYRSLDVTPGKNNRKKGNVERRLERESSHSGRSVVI

Experiment [2] deals with T2, Myc-tagged cytoplasmic fragment of ILDR2 (mouse) (mouse) (UniProt B5TVM2).
T2 sequence: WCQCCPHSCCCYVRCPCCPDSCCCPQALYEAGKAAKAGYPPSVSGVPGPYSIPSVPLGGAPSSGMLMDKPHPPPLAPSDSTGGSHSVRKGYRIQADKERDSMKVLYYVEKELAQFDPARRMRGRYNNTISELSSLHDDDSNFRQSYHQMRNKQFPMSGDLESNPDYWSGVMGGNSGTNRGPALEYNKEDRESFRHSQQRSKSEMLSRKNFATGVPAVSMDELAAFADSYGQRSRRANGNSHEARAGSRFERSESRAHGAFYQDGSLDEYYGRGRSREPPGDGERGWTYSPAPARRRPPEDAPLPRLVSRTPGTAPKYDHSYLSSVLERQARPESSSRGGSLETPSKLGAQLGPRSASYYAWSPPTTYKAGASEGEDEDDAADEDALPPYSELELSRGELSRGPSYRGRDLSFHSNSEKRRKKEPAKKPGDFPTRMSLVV

For experiment [3], the target named is T3, Myc-tagged cytoplasmic fragment of LSR (mouse) (mouse) (UniProt Q99KG5).
T3 sequence: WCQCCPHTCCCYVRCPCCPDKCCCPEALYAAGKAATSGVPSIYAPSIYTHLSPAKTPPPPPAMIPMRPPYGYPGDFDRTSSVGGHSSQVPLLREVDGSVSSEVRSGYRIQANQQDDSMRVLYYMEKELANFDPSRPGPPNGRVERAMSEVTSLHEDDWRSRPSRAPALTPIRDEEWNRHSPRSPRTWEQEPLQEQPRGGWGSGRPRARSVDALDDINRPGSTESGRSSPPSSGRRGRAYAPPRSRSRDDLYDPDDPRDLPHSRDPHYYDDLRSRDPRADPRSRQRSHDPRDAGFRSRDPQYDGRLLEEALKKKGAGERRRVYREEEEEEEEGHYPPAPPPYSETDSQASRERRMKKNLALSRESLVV

Experiment [4] deals with T4, Myc-tagged TRA2B (mouse) (mouse) (UniProt P62996).
T4 sequence: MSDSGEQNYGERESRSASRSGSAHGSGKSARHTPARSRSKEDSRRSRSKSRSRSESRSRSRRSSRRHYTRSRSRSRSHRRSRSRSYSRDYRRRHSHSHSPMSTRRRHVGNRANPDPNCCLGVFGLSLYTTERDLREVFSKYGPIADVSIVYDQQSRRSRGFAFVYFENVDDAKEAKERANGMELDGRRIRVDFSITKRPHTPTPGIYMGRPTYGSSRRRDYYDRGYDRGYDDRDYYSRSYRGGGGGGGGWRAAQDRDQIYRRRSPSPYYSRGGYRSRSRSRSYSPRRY

For experiment [5], the target named is T5, Myc-tagged SRSF5 (mouse) (mouse) (UniProt O35326).
T5 sequence: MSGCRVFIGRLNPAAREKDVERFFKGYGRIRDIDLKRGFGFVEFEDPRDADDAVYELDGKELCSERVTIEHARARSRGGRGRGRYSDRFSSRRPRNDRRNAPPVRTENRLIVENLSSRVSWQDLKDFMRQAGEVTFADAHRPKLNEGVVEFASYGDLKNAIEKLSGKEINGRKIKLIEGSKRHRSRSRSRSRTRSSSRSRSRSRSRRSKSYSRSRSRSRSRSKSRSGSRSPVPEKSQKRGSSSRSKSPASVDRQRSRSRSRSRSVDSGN

Experiment [6] concerns the target Myc-tagged SRSF1 (mouse) (mouse) (UniProt Q6PDM2).
The target in experiment [7] is T6, Myc-tagged TRA2A (mouse) (mouse) (UniProt Q6PFR5).
T6 sequence: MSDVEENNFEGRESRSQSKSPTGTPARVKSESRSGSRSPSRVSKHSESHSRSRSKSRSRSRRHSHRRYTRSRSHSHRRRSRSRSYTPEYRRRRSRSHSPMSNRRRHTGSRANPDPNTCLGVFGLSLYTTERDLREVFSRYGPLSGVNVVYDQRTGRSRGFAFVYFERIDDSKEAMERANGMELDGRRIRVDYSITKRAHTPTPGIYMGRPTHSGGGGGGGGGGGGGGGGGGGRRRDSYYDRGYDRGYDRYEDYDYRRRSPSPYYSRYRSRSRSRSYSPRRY

No constants are given. Whether binding was seen depends on the method and setting. In cells and extracts the contact can be indirect. Some entries that bind do so weakly or less than the wild type. Tags and fused reporters may be left off the sequences shown.

Consider “EGFP-tagged mouse SRSF1 (from UniProt Q6PDM2 1-248)”, for which the binding entry in experiment [1], in experiment [2] and in experiment [3] was “binds” in each case.

B1: EGFP-tagged TRA2A RRM domain (mouse) (domain or fragment, UniProt Q6PFR5 117-195)
chain: TCLGVFGLSLYTTERDLREVFSRYGPLSGVNVVYDQRTGRSRGFAFVYFERIDDSKEAMERANGMELDGRRIRVDYSIT
For B1, in experiment [1], the binding result is reported as “no binding”.

B2: EGFP-tagged mouse TRA2B (protein, UniProt P62996 1-288)
chain: MSDSGEQNYGERESRSASRSGSAHGSGKSARHTPARSRSKEDSRRSRSKSRSRSESRSRSRRSSRRHYTRSRSRSRSHRRSRSRSYSRDYRRRHSHSHSPMSTRRRHVGNRANPDPNCCLGVFGLSLYTTERDLREVFSKYGPIADVSIVYDQQSRRSRGFAFVYFENVDDAKEAKERANGMELDGRRIRVDFSITKRPHTPTPGIYMGRPTYGSSRRRDYYDRGYDRGYDDRDYYSRSYRGGGGGGGGWRAAQDRDQIYRRRSPSPYYSRGGYRSRSRSRSYSPRRY
Turning to B2, the binding result in experiment [1], in experiment [2] and in experiment [3] was “binds” throughout.

B3: EGFP-tagged full-length ILDR1 (mouse) (protein, UniProt Q8CBR1 23-537)
chain: LLVTVQHTERYVTLFASVTLKCDYTTSAQLQDVVVTWRFKSFCKDPIFDYFSASYQAALSLGQDPSNDCSDNQREVRIVAQRRGQSEPVLGVDYRQRKITIQNRADLVINEVMWWDHGVYYCTIEAPGDTSGDPDKEVKLIVLHWLTVIFIILGALLLLLLIGVCWCQCCPQYCCCYIRCPCCPTRCCCPEEALARHRYMKQVQALGPQMMEKPLYWGADRSSQVSSYAMNPLLQRDLSLQSSLPQMPMTQMAAHPPVANGVLEYLEKELRNLNPAQPLPADLRAKSGHPCSMLSSLGSAEVVERRVIHLPPLIRDPPSSRTSNPSHQQRLNAVSSRHCDLSERPRQRHHSDFLRELQDQGMRPWAPGRGELDPHWSGRHHRSRPSESSMPWSDWDSLSECPSSSEAPWPPRRPEPREGAQRRERRRHRSYSPPLPSGPSSWSSEEEKESLPRNWGAQRRHHHRRRRSQSPNWPEEKPPSYRSLDVTPGKNNRKKGNVERRLERESSHSGRSVVI
B3: the binding entry in experiment [4] is on record as “binds”; in experiment [5], “no binding”; in experiment [6] it was “binds”; in experiment [7] it was “binds”.

B4: EGFP-tagged TRA2B RRM domain (mouse) (domain or fragment, UniProt P62996 118-196)
chain: CCLGVFGLSLYTTERDLREVFSKYGPIADVSIVYDQQSRRSRGFAFVYFENVDDAKEAKERANGMELDGRRIRVDFSIT
On to B4, for which the binding result in experiment [1] is recorded as “no binding”.

B5: EGFP-tagged mouse TRA2A (protein, UniProt Q6PFR5 1-281)
chain: MSDVEENNFEGRESRSQSKSPTGTPARVKSESRSGSRSPSRVSKHSESHSRSRSKSRSRSRRHSHRRYTRSRSHSHRRRSRSRSYTPEYRRRRSRSHSPMSNRRRHTGSRANPDPNTCLGVFGLSLYTTERDLREVFSRYGPLSGVNVVYDQRTGRSRGFAFVYFERIDDSKEAMERANGMELDGRRIRVDYSITKRAHTPTPGIYMGRPTHSGGGGGGGGGGGGGGGGGGGRRRDSYYDRGYDRGYDRYEDYDYRRRSPSPYYSRYRSRSRSRSYSPRRY
As to B5, the binding result in experiment [1], in experiment [2] and in experiment [3] was “binds” each time.

Source of the values: publication PMC5547134.
